The densities may have been worked out from excess volumes.
Assay: xn = mol fraction of the nth substance listed
Conditions: 298.15 K, 101 kPa

CCCCCC[n+]1ccn(C)c1.F[P-](F)(F)(F)(F)F + CCOC(=O)OCC
Conditions	mass density [kg/m3]
x1 = 0.0098	976.1
x2 = 0	1293.7
x2 = 0.0502	1286.2
x2 = 0.1003	1278.8
x2 = 0.2981	1244.3
x2 = 0.3948	1223.6
x2 = 0.6005	1167.5
x2 = 0.7012	1131.7
x2 = 0.8011	1088.2
x2 = 0.8546	1060.7
x2 = 0.8702	1052.1

CCCCCC[n+]1ccn(C)c1.F[P-](F)(F)(F)(F)F + CC(C)=O
Conditions	mass density [kg/m3]
x2 = 0	1293.7
x2 = 0.0482	1286.8
x2 = 0.089	1280.9
x2 = 0.1826	1265.4
x2 = 0.2873	1244.9
x2 = 0.3971	1218.6
x2 = 0.532	1176.8
x2 = 0.6379	1132.8
x2 = 0.7225	1087.3
x2 = 0.8067	1027.6
x2 = 0.9089	925.4
x2 = 0.9538	864.1

CCCCCC[n+]1ccn(C)c1.F[P-](F)(F)(F)(F)F + COC(C)=O
Conditions	mass density [kg/m3]
x2 = 0	1293.7
x2 = 0.0501	1288.3
x2 = 0.0998	1282.6
x2 = 0.1957	1270.3
x2 = 0.298	1254.8
x2 = 0.3753	1240.9
x2 = 0.5925	1188.1
x2 = 0.712	1144.6
x2 = 0.7934	1105.1
x2 = 0.9033	1029.7
x2 = 0.9589	976.4

CCCCOC(C)=O + CCCCCC[n+]1ccn(C)c1.F[P-](F)(F)(F)(F)F
Conditions	mass density [kg/m3]
x1 = 1	876.3

CCCCCC[n+]1ccn(C)c1.F[P-](F)(F)(F)(F)F + COC(=O)OC
Conditions	mass density [kg/m3]
x2 = 0.0999	1286.6
x2 = 0.1967	1278.8
x2 = 0.3001	1269
x2 = 0.4015	1257.3
x2 = 0.4957	1244.2
x2 = 0.7065	1202.1
x2 = 0.8085	1170.4
x2 = 0.8974	1131.2
x2 = 0.9476	1101.7

CCCCCC[n+]1ccn(C)c1.F[P-](F)(F)(F)(F)F + CCOC(C)=O
Conditions	mass density [kg/m3]
x2 = 0.1006	1278.6
x2 = 0.198	1261.7
x2 = 0.4076	1215.7
x2 = 0.5083	1187.1
x2 = 0.6003	1155.5
x2 = 0.6995	1113.8
x2 = 0.7971	1062
x2 = 0.8982	991.3
x2 = 0.9415	954

CCCCCC[n+]1ccn(C)c1.F[P-](F)(F)(F)(F)F + CCCC(C)=O
Conditions	mass density [kg/m3]
x2 = 0	1293.7
x2 = 0.2961	1222.3
x2 = 0.4017	1189.1
x2 = 0.5054	1150.5
x2 = 0.6015	1108.2
x2 = 0.7066	1052.5
x2 = 0.804	988.4
x2 = 0.9068	902.8
x2 = 0.9462	863.5

CCCCCC[n+]1ccn(C)c1.F[P-](F)(F)(F)(F)F + CCC(C)=O
Conditions	mass density [kg/m3]
x2 = 0.0517	1285.2
x2 = 0.0988	1276.4
x2 = 0.1964	1256.5
x2 = 0.2988	1232.5
x2 = 0.3994	1204.8
x2 = 0.5005	1170.9
x2 = 0.5963	1132
x2 = 0.7071	1075
x2 = 0.8094	1006.3
x2 = 0.9023	922.6
x2 = 0.9421	878.3

CC(C)=O + CCCCCC[n+]1ccn(C)c1.F[P-](F)(F)(F)(F)F
Conditions	mass density [kg/m3]
x1 = 1	784.4

CCCC(C)=O + CCCCCC[n+]1ccn(C)c1.F[P-](F)(F)(F)(F)F
Conditions	mass density [kg/m3]
x1 = 1	801.4

COC(C)=O + CCCCCC[n+]1ccn(C)c1.F[P-](F)(F)(F)(F)F
Conditions	mass density [kg/m3]
x1 = 1	926.9

COC(=O)OC + CCCCCC[n+]1ccn(C)c1.F[P-](F)(F)(F)(F)F
Conditions	mass density [kg/m3]
x1 = 1	1063.3

CCCCCC[n+]1ccn(C)c1.F[P-](F)(F)(F)(F)F + CCCCOC(C)=O
Conditions	mass density [kg/m3]
x2 = 0	1293.7
x2 = 0.0504	1283
x2 = 0.106	1270.5
x2 = 0.2035	1246.7
x2 = 0.3082	1217.8
x2 = 0.4216	1182.3
x2 = 0.4934	1157.1
x2 = 0.7055	1066
x2 = 0.7946	1017.8
x2 = 0.9087	945.2
x2 = 0.9635	905.2

CCOC(=O)OCC + CCCCCC[n+]1ccn(C)c1.F[P-](F)(F)(F)(F)F
Conditions	mass density [kg/m3]
x1 = 1	969.2
